# Read counts are not given, so values of variants with three or more changes are uncertain.
# B1: CPEB3 Ribozyme (parent)
# chain: UAACAGGGGGCCACAGCAGAAGCGUUCACGUCGCAGCCCCUGUCAGAUUCUGGUGAAUCUGCGAAUUCUGCUGUAUAUCUC
# Variants of: B1
# Assay: self-cleavage, relative activity (ratio to wild type); higher = more cleavage; in vitro, sequencing
# Summary of the method: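 CPEB3 self-cleaving ribozyme mutant libraries were made by rounds of error-prone PCR, barcoded, and transcribed in vitro with T7 RNA polymerase for 5 hours at 37°C. Cleavage occurred during transcription and a 15 min DNase I step before EDTA stop. RNAs were reverse transcribed with template switching and Illumina-sequenced, with DNA sequencing mapping barcodes to variants. Relative activity is the variant's cleaved/total read fraction divided by wild type's (minimum 5 reads), averaged across three batches.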
row,Variant,self-cleavage
1,U49C A64G U80C,0.26
2,U49C A65G U67C,0.42
3,U49C A65G U72C G73C U76A,0.12
4,U49C A65G U78A,0.33
5,U49C A65U U66C,0.15
6,U49C C62G U72A,0.21
7,U49C C62U G73A,0.04
8,U49C C71A A77G,0.12
9,U49C G61A A64G U67C U69A,0.12
10,U49C G61C U66C,0.12
11,U49C G61U U72C,0.1
12,U49C G63U C79U,0.35
13,U49C U51A U54A U72C,0.93
14,U49C U51A U60C,0.37
15,U49C U51C G52U,0.15
16,U49C U54A U72C,0.27
17,U49C U54G U72A,0.13
18,U49C U58C U76A,0.13
19,U49C U58G U69A,0.46
20,U49C U60C U67C,0.17
21,U49C U60C U80A,0.19
22,U49C U60G A65G,0.18
23,U49C U66C U69A,0.17
24,U49C U66C U78C,0.18

row,Variant,self-cleavage
1,U49C U67C U69A U78C,0.11
2,U49C U69A U72A,0.13
3,U49C U69A U80C,0.07
4,U49C U69G U78C,0.22
5,U49G U54A U60G,0.38
6,C50A C62U U80A,0.17
7,C50A U60C U66G,0.21
8,C50G A65U U67C U72C,0.06
9,C50U A56G U67A,0.43
10,C50U G73U A75U,1.29
11,C50U U51C U78C,0.86
12,C50U U54G U60C A75U,0.17
13,U51A A56G U80C,0.43
14,U51A A56U A57G,0.29
15,U51A A57G U67A U69A,0.27
16,U51A A64G U66C,0.43
17,U51A A65G U80C,0.23
18,U51A C59U U69C U78C,0.6
19,U51A C68U A77G,1.02
20,U51A G52C U60G A65G,0.6
21,U51A U54A U58C,0.43
22,U51A U54C A56G U78C,0.59
23,U51A U54C A57G,0.61
24,U51A U54C A65G,0.54

row,Variant,self-cleavage
1,U51A U54C U58A U80C,0.28
2,U51A U54C U76C,1.14
3,U51A U54G A77U,0.43
4,U51A U58A A64G U66A U74C,0.45
5,U51A U58C A65G,0.46
6,U51A U58G A64G,0.15
7,U51A U60A U69C A75U,0.67
8,U51A U60C U72C A77G,0.63
9,U51A U60C U76A,0.76
10,U51A U66C U67C U72C,0.46
11,U51A U67A C81U,0.63
12,U51A U67C U72C,0.25
13,U51A U67C U78C,0.4
14,U51A U72A A75G U78C,0.49
15,U51C A56G A64G U78C,0.34
16,U51C A56G U60C,0.37
17,U51C A56U U60C U72C,0.17
18,U51C A56U U69G,0.37
19,U51C A57G C59U,0.47
20,U51C A57G U60A U67A U76A A77U,0.32
21,U51C A64G A77G U78C,0.54
22,U51C A64U U67C U72C,0.52
23,U51C A75U U76A,1.2
24,U51C C59A A64G U78C,0.34

row,Variant,self-cleavage
1,U51C C62U A64U U69C,0.28
2,U51C C62U A65G U66C U67C A75U,0.18
3,U51C C71A U72C,0.52
4,U51C G52U A56G,0.83
5,U51C G61A A77C,0.42
6,U51C U54C A56G,0.74
7,U51C U54C A56U U66A,0.27
8,U51C U54C U60C C62U,0.47
9,U51C U58C G63C,0.47
10,U51C U58C U67C,0.44
11,U51C U58G U78C,0.18
12,U51C U60A A77G,0.34
13,U51C U66A U78C,0.42
14,U51C U66C U78A,0.55
15,U51C U67C A77G,0.41
16,U51C U67C U69G,0.38
17,U51C U72A A75G,0.95
18,U51C U74G A77U,1.28
19,U51C U76A U80C,1.25
20,U51C U76C A77G,1.13
21,U51G A56G G70C,0.12
22,U51G A64G U72A U78C,1.02
23,U51G A64U U78C,0.2
24,U51G A65G U80C,0.33

row,Variant,self-cleavage
1,U51G G52A G53A,1.19
2,U51G U54C U60C,0.51
3,U51G U54G C62U U76C,0.14
4,G52A A57G A64C U69C,0.44
5,G52A A65G U67A,0.16
6,G52A U54C U69C,0.78
7,G52A U58C U67C,0.34
8,G52A U60C U72A,0.41
9,G52A U66C U78C,0.51
10,G52C U60C U67A,0.39
11,G52U A57G A65G,0.62
12,G52U A64G U67C,0.13
13,G53A A57G U58C,0.36
14,G53A A57G U78C,0.65
15,G53A A65C A75C,0.18
16,G53A A65G U74C,0.64
17,G53A A65G U78C,0.44
18,G53A U72A A75G,1.26
19,G53C U54G C62U A65G,0.29
20,U54A A56G U67A U80C,0.51
21,U54A A56G U74C,0.91
22,U54A A56U A65U,0.14
23,U54A A56U U69C,0.37
24,U54A A57G A65G,0.19

row,Variant,self-cleavage
1,U54A A57G A75G,0.43
2,U54A A57G U67C U78A U80A,0.62
3,U54A A57G U69C A75C,0.46
4,U54A A57G U80C,1.04
5,U54A A64U U80C,0.37
6,U54A A65G U69C,0.3
7,U54A A65U U76A,0.21
8,U54A C71A U78C U80A,0.53
9,U54A G63C A65G U74C,0.47
10,U54A U58A C59U,0.45
11,U54A U58A U80C,0.56
12,U54A U58C U76A,1.1
13,U54A U60A U69C,0.4
14,U54A U60C A65C U78C,0.2
15,U54A U72C U78C,1.14
16,U54C A56G A77U U78C,0.47
17,U54C A56G C62A,0.2
18,U54C A57G A64U,0.29
19,U54C A64G C79U,1.11
20,U54C A65G U80A,0.44
21,U54C A75U C79A,1.24
22,U54C C59A U66C,0.13
23,U54C C68A A77G,0.42
24,U54C U60A C62G,0.26

row,Variant,self-cleavage
1,U54C U60C U66C A77G,0.4
2,U54C U60G U67A,0.17
3,U54C U66A U72A,0.45
4,U54C U66C U69C,0.19
5,U54C U66C U69C U74C,0.21
6,U54C U69A U80C,0.53
7,U54C U72A G73U,1.2
8,U54C U72C G73A,1.26
9,U54C U72C U74C,1.25
10,U54G C62U U76C,0.19
11,U54G G61A U67C,0.39
12,U54G U60C A64G,0.24
13,U54G U69C U78C,0.38
14,G55A A56G U66C C68U U78C,0.12
15,G55A A56U A64G,0.65
16,G55A A57G A64G U76C A77G,0.33
17,G55A A57G U66C A77G,0.13
18,G55A U60C U80C,0.23
19,G55A U69C G70A U76G,0.19
20,G55U A65G U69C U80C,0.16
21,G55U U60C A77U,0.38
22,G55U U66A C71U,0.29
